From PubChem BioAssay AID1030 (National Center for Advancing Translational Sciences (NCATS), 2008)
The campaign covered roughly 220,000 compounds. About 16,000 (7.3%) were called active. The shares of active, inactive and inconclusive entries below differ from those in the screen. Calls follow the shape of the dose curve; as a rule, active = well fitted inhibition curve with a large enough effect (not every such curve was filed as active); inconclusive = small, poorly fitted or top-dose-only effect, or another doubt; inactive = no such curve, though single readings can be large or run the other way. Potencies of inconclusive entries are left out as doubtful fits.
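For activity, negative = inhibition in this document: plate controls were no enzyme wells and a reference inhibitor.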
Potency is read from the fitted curve at half-maximal effect; tags tell the direction and shape of the fitted curve.

These compounds were tested against Aldehyde dehydrogenase 1A1 (Homo sapiens) (UniProt P00352) (assay: qHTS Assay for Inhibitors of Aldehyde Dehydrogenase 1 (ALDH1A1)). Conditions: Purified ALDH1A1, NADH fluorescence, propionaldehyde substrate; series mostly up to 75.3 µM; activity, negative = inhibition: at the top concentration.
Sequence of UniProt P00352 (P00352 whole entry, looked up): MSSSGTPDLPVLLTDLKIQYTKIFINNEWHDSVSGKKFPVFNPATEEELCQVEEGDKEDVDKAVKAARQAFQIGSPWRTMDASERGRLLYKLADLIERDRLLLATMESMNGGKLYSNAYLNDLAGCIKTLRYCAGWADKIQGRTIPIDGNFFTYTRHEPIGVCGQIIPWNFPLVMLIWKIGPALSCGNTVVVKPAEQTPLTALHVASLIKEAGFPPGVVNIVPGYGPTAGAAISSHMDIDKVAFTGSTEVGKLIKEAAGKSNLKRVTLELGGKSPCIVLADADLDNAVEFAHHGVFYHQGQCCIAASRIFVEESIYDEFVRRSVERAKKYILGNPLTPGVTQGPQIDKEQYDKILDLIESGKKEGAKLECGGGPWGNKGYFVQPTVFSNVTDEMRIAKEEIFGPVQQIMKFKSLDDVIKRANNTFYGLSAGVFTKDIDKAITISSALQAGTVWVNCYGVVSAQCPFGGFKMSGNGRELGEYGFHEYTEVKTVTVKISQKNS
For `c1ccc(OCCCn2nnc(-c3cccnc3)n2)cc1`, the Potency was inconclusive [inhibitor, single point]. For `COc1cccc(NS(=O)(=O)c2ccc3c(c2)C2C=CCC2C(c2ccc(C(=O)O)cc2)N3)c1` (configuration not stated), the Potency was active: 20 µM. For `C=CCN1C(=O)/C(=C\c2ccc(C)cc2)N=C1SCC(=O)NCCC`, the Potency was inconclusive [inhibitor, full curve]. In the case of `CC(C)(C)NC(=O)CSc1nnc(-c2ccncc2)o1`, the “activity, negative = inhibition” value is reported as inactive: 3.06%. `CCn1cnc2sc(C(=O)N(Cc3ccc(N(C)C)cc3)Cc3ccco3)c(C)c2c1=O` was tested, and the Potency was active: 8.91 µM. With `CN(Cc1ccccc1NS(=O)(=O)c1ccc2ccccc2c1)C1CCCCC1` the Potency was inconclusive [inhibitor, single point]. With `Cn1cc(-c2ccc(Cl)cc2)cc(C#N)c1=O` the Potency was inconclusive [inhibitor, single point]. With `CCOC(=O)CNC(=O)Cn1cnc2c(nnn2-c2ccc(F)cc2)c1=O` the “activity, negative = inhibition” value was inactive: 3.5%. In the case of `CC(c1nccs1)N(C)C(=O)CCc1nnc(CCc2ccccc2)o1` (configuration not stated), the “activity, negative = inhibition” value is reported as inactive: 5.04%. `FC(F)(F)c1cc(NC(=S)NC23CC4CC(CC(C4)C2)C3)cc(C(F)(F)F)c1` was tested, and the “activity, negative = inhibition” value was inactive: -0.18%. In the case of `CCOC(=O)c1ccc(-n2c(C)nc3c(cnn3-c3ccccc3Cl)c2=O)cc1`, the Potency is reported as inconclusive [inhibitor, single point]. With `COc1ccc(S(=O)(=O)NCC2CCC(C(=O)NCc3cccnc3)CC2)cc1` (configuration not stated) the Potency was inconclusive [inhibitor, partial curve]. For `NC(=S)N/N=C/c1ccc(-c2cccc([N+](=O)[O-])c2)o1`, the Potency was inconclusive [inhibitor, partial curve]. For `CSc1nc(C)cc(Nc2ccc(O)c(CN3CCOCC3)c2)n1`, the activity, negative = inhibition was inactive: 1.59% [at 13.5 µM]. In the case of `CCc1nc(NC2CCCCC2)c(C#N)c2c1COC(C)(C)C2`, the Potency is reported as inconclusive [inhibitor, single point]. For `CSC(=S)N/N=C/c1ccc(Br)cc1`, the “activity, negative = inhibition” value was inactive: -12.8%. In the case of `COc1ccc(NC(=O)C2CCCN(S(=O)(=O)c3cccc4nonc34)C2)cc1` (configuration not stated), the “activity, negative = inhibition” value is reported as inactive: 5.94%. `COc1cc(OC)c(C2C(C#N)=C(N)Oc3cc(C)n(CCCN4CCOCC4)c(=O)c32)cc1OC` (configuration not stated) was tested, and the Potency was inconclusive [inhibitor, single point]. With `CCCCNC(=S)N=Nc1c(O)[nH]c2ccccc12` the Potency was inconclusive [inhibitor, partial curve, poor fit]. With `COc1ccc(CN2CC(C(=O)NCCN3CCN(c4ccccc4F)CC3)CC2=O)cc1` (configuration not stated) the Potency was inconclusive [inhibitor, single point]. For `CCCNCC(O)Cn1c2ccccc2n2c(=O)cc(C)c(C#N)c12` (configuration not stated), the Potency was inconclusive [inhibitor, partial curve]. In the case of `Cc1ccc(S(=O)(=O)NC(=O)Nc2cc(C)ccc2F)cc1`, the Potency is reported as active: 28.2 µM. With `O=C(CNCc1ccccc1Cl)Nc1ccc2c(c1)OCCO2` the Potency was active: 12.6 µM. With `CCn1c(C)nc2cc(C(=O)N/N=C(\C)c3ccc(OC)cc3O)ccc21` the Potency was inconclusive [inhibitor, single point]. For `CCCn1c2c(c(O)c(C(=O)Nc3ncccc3O)c1=O)CCCC2`, the Potency was active: 5.62 µM. `O=C(c1ccccc1F)c1cc2c(cc1[N+](=O)[O-])OCCO2` was tested, and the Potency was active: 11.2 µM. In the case of `CCN(CC)c1ccc(/C=N/NC(=O)C(O)(c2ccccc2)c2ccccc2)o1`, the “activity, negative = inhibition” value is reported as inactive: -15.4%. `C=CCc1cccc2cc(C(=O)NC)c(=O)oc12` was tested, and the Potency was inconclusive [inhibitor, single point]. With `O=C(CC1S/C(=N/N=C/C=C/c2ccccc2)NC1=O)Nc1ccc(Cl)c(Cl)c1` (configuration not stated) the “activity, negative = inhibition” value was inactive: -3.34%. For `Cc1cccc(-n2nnnc2SCC(=O)c2cc(C)n(CC3CCCO3)c2C)c1` (configuration not stated), the Potency was active: 7.94 µM. `COc1cc(OC)cc(C(=O)Nc2nnc(Cc3ccc(OC)c(OC)c3)s2)c1` was tested, and the “activity, negative = inhibition” value was inactive: 3.88%. For `O=C(Nc1ccc(NC(=O)c2ccco2)cc1)c1ccc2c(c1)OCCO2`, the Potency was inconclusive [inhibitor, single point]. For `COc1ccccc1CCn1c(=O)c(-c2ccccc2)nc2cncnc21`, the “activity, negative = inhibition” value was inactive: -8.62%. In the case of `CC(C)N(C(=O)CSc1nnc(CN2CCCCCC2=O)n1-c1ccccn1)C(C)C`, the “activity, negative = inhibition” value is reported as inactive: -2.16%. For `COc1ccc(C(=O)Nc2ccc(-c3ccc(C)o3)cc2)cc1S(=O)(=O)N1CCOCC1`, the Potency was inconclusive [inhibitor, full curve]. With `COc1ccc(C2CC(=O)C3=C(C2)NC(C)=C(C#N)C3c2ccc(N(C)C)cc2)cc1` (configuration not stated) the Potency was inconclusive [inhibitor, full curve]. In the case of `COc1ccc(-c2nc(N)n(S(=O)(=O)c3ccc(C)cc3)n2)cc1`, the Potency is reported as inconclusive [inhibitor, single point]. `Nc1cccc(-c2nc3ccccc3[nH]2)c1` was tested, and the Potency was inconclusive [inhibitor, partial curve]. In the case of `CCN1CCN(C(C)C(=O)Nc2c(C)n(C)n(-c3ccccc3)c2=O)CC1` (configuration not stated), the Potency is reported as active: 22.4 µM. `Cc1nn(Cc2ccccc2)c(C)c1NC(=O)CSc1nc(-c2ccccc2)nc2c1cnn2-c1ccccc1` was tested, and the Potency was inconclusive [inhibitor, partial curve, poor fit]. `COC(=O)NC(c1cccc(F)c1)[C@@]1(C(=O)OC)CCCC1=O` (some centres not stated) was tested, and the activity, negative = inhibition was inactive: 2.55% [at 13.5 µM]. In the case of `COC(=O)[C@@H]1C[C@H]1[C@@H](NS(=O)(=O)c1ccc2ccccc2c1)c1ccccc1`, the “activity, negative = inhibition” value is reported as inactive: 3.81%. For `Cn1cc([N+](=O)[O-])c(C(=O)Nc2cc(Oc3ccccc3)cc([N+](=O)[O-])c2)n1`, the Potency was inconclusive [inhibitor, partial curve]. For `CCSc1nnc(N(CCC(=O)O)CCC(=O)O)s1`, the Potency was inconclusive [inhibitor, single point]. With `O=C1Nc2ccccc2N(O)N1c1cc(-c2ccc(Cl)cc2)[nH]n1` the “activity, negative = inhibition” value was inactive: 4.28%. For `N=C1SC(CC(=O)Nc2ccc([N+](=O)[O-])cc2)C(=O)N1c1ccccc1` (configuration not stated), the Potency was inconclusive [inhibitor, single point]. With `O=C(CN1CCN(CC(=O)Nc2ccccc2F)CC1)Nc1ccc2c(c1)OCCO2` the Potency was active: 28.2 µM.
